# Reference: the supplement of paper PMC12217912
# This is one part of the list. The full chains were built here from the parent and the listed change. Inactive controls read about 0.05.
# B1: TEV protease; numbered along this chain (parent)
# chain: MGESLFKGPRDYNPISSSICHLTNESDGHTTSLYGIGFGPFIITNKHLFRRNNGTLVVQSLHGVFKVKDTTTLQQHLVDGRDMIIIRMPKDFPPFPQKLKFREPQREERICLVTTNFQTKSMSSMVSDTSCTFPSGDGIFWKHWIQTKDGQCGSPLVSTRDGFIVGIHSASNFTNTNNYFTSVPKNFMELLTNQEAQQWVSGWRLNADSVLWGGHKVFMVKPEEPFQPVKEATQL
# Variants of: B1
# Assay: raw area under fraction-flipped curve 0-4 h after induction (AUC4h, not background-subtracted), DNA-recorder readout of cleavage of the substrate (dimensionless); higher = more cleavage of the substrate by the protease variant
# Settings: temperature: 34 °C; time window: 0-4 h after rhamnose induction
# 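Note: Bxb1 expression induced with 0.2% (w/v) L-rhamnose at OD600 near 0.5, cultures sampled hourly, flipped fraction per protease–substrate barcode pair counted by paired-end Illumina sequencing.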
Variant,area with substrate ANLYFQS,area with substrate CNLYFQS,area with substrate DNLYFQS,area with substrate FNLYFQS,area with substrate GNLYFQS,area with substrate HNLYFQS,area with substrate KNLYFQS,area with substrate LNLYFQS,area with substrate MNLYFQS,area with substrate NNLYFQS,area with substrate QNLYFQS,area with substrate SNLYFQS,area with substrate TNLYFQS,area with substrate VNLYFQS,area with substrate WNLYFQS,area with substrate YNLYFQS,area with substrate INLYFQS,area with substrate PNLYFQS,area with substrate RNLYFQS
MGESLFKGPRDYNPISSSICHLTNESDGHTTSLYGIGFGPFIITNKHLFRRNNGTLVVQSLHGVFKVKDTTTLQQHLVDGRDMIIIRMPKDFPPFPQKLKFREPQREERICLVTTNFQTKSMSSMVSDTSCTFPSGDGIFWKHWIQTKDGQCGSPLVSTRDGFIVGIHSASNFTNTNNYFTSVPKNFMELLTNQEAQQWVSGWTLNADSVLWGGHKVFMVKPEEPFQPVKEATQL [R204T],0.0649,0.121,0.0837,0.0673,0.0624,0.0697,0.0688,0.0752,0.0627,0.0734,0.0571,0.0685,0.064,0.0665,0.0661,0.0715,,,
MGESLFKGPRDYNPISSSICHLTNESDGHTTSLYGIGFGPFIITNKHLFRRNNGTLVVQSLHGVFKVKDTTTLQQHLVDGRDMIIIRMPKDFPPFPQKLKFREPQREERICLVTTNFQTKSMSSMVSDTSCTFPSGDGIFWKHWIQTKDGQCGSPLVSTRDGFIVGIHSASNFTNTNNYFTSVPKNFMELLTNQEAQQWVSGWRLNADSVLWGGHKVFCVKPEEPFQPVKEATQL [M219C],0.0614,0.0598,0.0778,,,,,,,,,0.0616,,0.0567,0.0637,,0.0493,0.059,
MGESLFKGPRDYNPISSSICHLTNESDGHTTSLYGIGFGPFIITNKHLFRRNNGTLVVQSLHGVFKVKDTTTLQQHLVDGRDMIIIRMPKDFPPFPQKLKFREPQREERICLVTTNFQTKSMSSMVSDTSCTFPSGDGIFWKHWIQTKDGQCGSPLVSTRDGFIVGIHSASNFTNTNNYFTSVPKNFMELLTNQEAQQWVSGWRLNADSVLWGGHKVFEVKPEEPFQPVKEATQL [M219E],0.0597,0.0591,0.0471,0.0783,0.0517,0.061,0.0616,0.0615,,0.0627,,0.057,0.0621,,0.0527,0.0381,0.0667,0.0613,
MGESLFKGPRDYNPISSSICHLTNESDGHTTSLYGIGFGPFIITNKHLFRRNNGTLVVQSLHGVFKVKDTTTLQQHLVDGRDMIIIRMPKDFPPFPQKLKFREPQREERICLVTTNFQTKSMSSMVSDTSCTFPSGDGIFWKHWIQTKDGQCGSPLVSTRDGFIVGIHSASNFTNTNNYFTSVPKNFMELLTNQEAQQWVSGWRWNADSVLWGGHKVFMVKPEEPFQPVKEATQL [L205W],0.0458,0.0454,0.0632,,0.0605,0.0647,0.0557,0.0443,,,,0.057,0.0475,,0.0514,0.0575,0.0572,0.0504,
MGESLFKGPRDYNPISSSICHLTNESDGHTTSLYGIGFGPFIITNKHLFRRNNGTLVVQSLHGVFKVKDTTTLQQHLVDGRDMIIIRMPKDFPPFPQKLKFREPQREERICLVTTNFQTKSMSSMVSDTSCTFPSGDGIFWKHWIQTKDGQCGSPLVSTRDGFIVGIHSASNFTNTNNYFTSVPKNFMELLTNQEAQQWVSGWRLNADSVLWGGHKAFMVKPEEPFQPVKEATQL [V217A],0.0489,0.0631,0.0615,,0.0804,0.0592,,,0.0298,0.0519,,0.0613,0.0618,0.0512,0.0563,,0.0672,,
MGESLFKGPRDYNPISSSICHLTNESDGHTTSLYGIGFGPFIITNKHLFRRNNGTLVVQSLHGVFKVKDTTTLQQHLVDGRDMIIIRMPKDFPPFPQKLKFREPQREERICLVTTNFQTKSMSSMVSDTSCTFPSGDGIFWKHWIQTKDGQCGSPLVSTRDGFIVGIHSASNFTNTNNYFTSVPKNFMELLTNQEAQQWVSGWRLNADSVLWGGHKQFMVKPEEPFQPVKEATQL [V217Q],0.0525,0.0537,0.0742,0.0484,0.0635,0.06,0.0583,,0.0549,0.0582,,,0.0637,0.0613,0.0528,,,0.0676,0.0521
MGESLFKGPRDYNPISSSICHLTNESDGHTTSLYGIGFGPFIITNKHLFRRNNGTLVVQSLHGVFKVKDTTTLQQHLVDGRDMIIIRMPKDFPPFPQKLKFREPQREERICLVTTNFQTKSMSSMVSDTSCTFPSGDGIFWKHWIQTKDGQCGSPLVSTRDGFIVGIHSASNFTNTNNYFTSVPKNFMELLTNQEAQQWVSGYRLNADSVLWGGHKVFMVKPEEPFQPVKEATQL [W203Y],0.0611,0.0731,0.07,0.0643,0.0612,0.0599,,0.0593,,,,0.0631,,,,0.0578,,0.0588,
MGESLFKGPRDYNPISSSICHLTNESDGHTTSLYGIGFGPFIITNKHLFRRNNGTLVVQSLHGVFKVKDTTTLQQHLVDGRDMIIIRMPKDFPPFPQKLKFREPQREERICLVTTNFQTKSMSSMVSDTSCTFPSGDGIFWKHWIQTKDGQCGSPLVSTRDGFIVGIHSASNFTNTNNYFTSVPKNFMELLTNQEAQQWVSGWRLHADSVLWGGHKVFMVKPEEPFQPVKEATQL [N206H],0.0819,0.0613,0.0722,,0.0726,0.0645,,0.0787,,0.0611,,0.042,0.0547,0.0586,0.0591,0.0662,0.0753,,0.055
MGESLFKGPRDYNPISSSICHLTNESDGHTTSLYGIGFGPFIITNKHLFRRNNGTLVVQSLHGVFKVKDTTTLQQHLVDGRDMIIIRMPKDFPPFPQKLKFREPQREERICLVTTNFQTKSMSSMVSDTSCTFPSGDGIFWKHWIQTKDGQCGSPLVSTRDGFIVGIHSASNFTNTNNYFTSVPKNFMELLTNQEAQQWVSGWRLGADSVLWGGHKVFMVKPEEPFQPVKEATQL [N206G],0.0745,0.0721,0.0704,0.0327,0.0988,0.0543,,0.0698,0.0722,0.0641,,0.0574,0.0632,0.102,0.059,0.0574,0.062,,
MGESLFKGPRDYNPISSSICHLTNESDGHTTSLYGIGFGPFIITNKHLFRRNNGTLVVQSLHGVFKVKDTTTLQQHLVDGRDMIIIRMPKDFPPFPQKLKFREPQREERICLVTTNFQTKSMSSMVSDTSCTFPSGDGIFWKHWIQTKDGQCGSPLVSTRDGFIVGIHSASNFTNTNNYFTSVPKNFMELLTNQEAQQWVSAWRLNADSVLWGGHKVFMVKPEEPFQPVKEATQL [G202A],0.0052,0.0738,0.0632,0.0545,0.0611,0.0683,0.0665,0.0872,0.0354,,,0.0681,0.0579,,0.06,0.0586,0.0558,,
MGESLFKGPRDYNPISSSICHLTNESDGHTTSLYGIGFGPFIITNKHLFRRNNGTLVVQSLHGVFKVKDTTTLQQHLVDGRDMIIIRMPKDFPPFPQKLKFREPQREERICLVTTNFQTKSMSSMVSDTSCTFPSGDGIFWKHWIQTKDGQCGSPLVSTRDGFIVGIHSASNFTNTNNYFTSVPKNFMELLTNQEAQQWVSGWRLNADSVLWGGDKVFMVKPEEPFQPVKEATQL [H215D],0.0569,0.07,0.0548,,0.0353,0.0563,0.0628,0.0737,,0.0703,,0.057,0.0586,,0.054,0.0509,0.0616,0.0526,
MGESLFKGPRDYNPISSSICHLTNESDGHTTSLYGIGFGPFIITNKHLFRRNNGTLVVQSLHGVFKVKDTTTLQQHLVDGRDMIIIRMPKDFPPFPQKLKFREPQREERICLVTTNFQTKSMSSMVSDTSCTFPSGDGIFWKHWIQTKDGQCGSPLVSTRDGFIVGIHSASNFTNTNNYFTSVPKNFMELLTNQEAQQWVSGWRLNADSVLWGGWKVFMVKPEEPFQPVKEATQL [H215W],0.0542,0.0514,0.0816,0.0577,0.0731,0.0541,0.0422,0.0676,0.0565,0.0601,,0.0714,0.063,0.0588,0.0545,0.0591,0.0573,0.0755,0.0532
MGESLFKGPRDYNPISSSICHLTNESDGHTTSLYGIGFGPFIITNKHLFRRNNGTLVVQSLHGVFKVKDTTTLQQHLVDGRDMIIIRMPKDFPPFPQKLKFREPQREERICLVTTNFQTKSMSSMVSDTSCTFPSGDGIFWKHWIQTKDGQCGSPLVSTRDGFIVGIHSASNFTNTNNYFTSVPKNFMELLTNQEAQQWVKGWRLNADSVLWGGHKVFMVKPEEPFQPVKEATQL [S201K],0.0767,0.0816,0.0657,,,,,0.0518,0.0711,,,0.0832,0.0775,,,,,,
MGESLFKGPRDYNPISSSICHLTNESDGHTTSLYGIGFGPFIITNKHLFRRNNGTLVVQSLHGVFKVKDTTTLQQHLVDGRDMIIIRMPKDFPPFPQKLKFREPQREERICLVTTNFQTKSMSSMVSDTSCTFPSGDGIFWKHWIQTKDGQCGSPLVSTRDGFIVGIHSASNFTNTNNYFTSVPKNFMELLTNQEAQQWVWGWRLNADSVLWGGHKVFMVKPEEPFQPVKEATQL [S201W],0.057,0.0563,0.0556,0.0642,0.0627,0.0565,0.0573,0.0606,0.0537,0.0544,,0.041,0.0573,,0.0555,,0.0618,0.0592,
MGESLFKGPRDYNPISSSICHLTNESDGHTTSLYGIGFGPFIITNKHLFRRNNGTLVVQSLHGVFKVKDTTTLQQHLVDGRDMIIIRMPKDFPPFPQKLKFREPQREERICLVTTNFQTKSMSSMVSDTSCTFPSGDGIFWKHWIQTKDGQCGSPLVSTRDGFIVGIHSASNFTNTNNYFTSVPKNFMELLTNQEAQQWVSGWRLNADSVLWGGHKVPMVKPEEPFQPVKEATQL [F218P],0.0586,0.0381,0.0641,,0.0582,0.0725,0.0617,0.0512,0.0578,0.0594,,0.0652,0.054,,0.0538,0.0433,0.0579,,
MGESLFKGPRDYNPISSSICHLTNESDGHTTSLYGIGFGPFIITNKHLFRRNNGTLVVQSLHGVFKVKDTTTLQQHLVDGRDMIIIRMPKDFPPFPQKLKFREPQREERICLVTTNFQTKSMSSMVSDTSCTFPSGDGIFWKHWIQTKDGQCGSPLVSTRDGFIVGIHSASNFTNTNNYFTSVPKNFMELLTNQEAQQWVSGWRLNADSVLWFGHKVFMVKPEEPFQPVKEATQL [G213F],0.0483,0.0587,0.0509,0.0807,,,0.0617,0.0422,0.0688,,,0.0496,0.0484,,0.0514,0.0568,0.0453,0.0599,
MGESLFKGPRDYNPISSSICHLTNESDGHTTSLYGIGFGPFIITNKHLFRRNNGTLVVQSLHGVFKVKDTTTLQQHLVDGRDMIIIRMPKDFPPFPQKLKFREPQREERICLVTTNFQTKSMSSMVSDTSCTFPSGDGIFWKHWIQTKDGQCGSPLVSTRDGFIVGIHSASNFTNTNNYFTSVPKNFMELLTNQEAQQHVSGWRLNADSVLWGGHKVFMVKPEEPFQPVKEATQL [W199H],0.0447,0.0584,0.0615,0.0663,0.0631,,0.0593,0.0722,0.0599,,,0.0561,0.0698,,,,,0.058,
MGESLFKGPRDYNPISSSICHLTNESDGHTTSLYGIGFGPFIITNKHLFRRNNGTLVVQSLHGVFKVKDTTTLQQHLVDGRDMIIIRMPKDFPPFPQKLKFREPQREERICLVTTNFQTKSMSSMVSDTSCTFPSGDGIFWKHWIQTKDGQCGSPLVSTRDGFIVGIHSASNFTNTNNYFTSVPKNFMELLTNQEAQQWVSGWRLNADSVLKGGHKVFMVKPEEPFQPVKEATQL [W212K],0.0575,0.0575,0.0653,0.0479,,0.0536,0.0411,0.0592,0.0714,0.052,,0.0581,0.0605,,0.0637,0.0596,0.0449,0.0512,0.0697
